Reference: the antibiotic and cytotoxicity screens of Wong et al. (2023)
This is one part of the list.

System: S. aureus RN4220
Assay: growth inhibition call (relative growth <= 0.2)
Settings: 50 µM

Structure (SMILES) | growth inhibition call
C=C1[C@H]2CC[C@H]3[C@]4(C)C[C@H](O[C@H]5O[C@@H](CO)[C@@H](OS(=O)(=O)O)[C@H](OS(=O)(=O)O)[C@H]5OC(=O)CC(C)C)C[C@@H](C(=O)O)[C@H]4CC[C@]3(C2)[C@H]1O | inactive
[N-]=[N+]=NCc1ccccc1C[C@]1(C(=O)NCCN2CCOCC2)N=C(c2ccc(OCCCO)cc2)O[C@H]1c1ccccc1N=[N+]=[N-] | inactive
COCCCNC(=O)[C@@]1(Cc2ccccc2CN=[N+]=[N-])N=C(c2ccc(OCCCO)cc2)O[C@H]1c1ccccc1CN=[N+]=[N-] | inactive
CCC(CC)C(=O)N[C@@H]1[C@@H]2CNC[C@@H]21 | inactive
C=CCc1cc(OC)c2c(c1OC)OCO2 | inactive
CN1[C@@H]2CC[C@@H]1C[C@H](O)C2 (some centres undefined) | inactive
O=[As]O[As]=O (centres undefined) | inactive
CC1(C)S[C@@H]2[C@H](N)C(=O)N2[C@H]1C(=O)O | inactive
Cc1ccnc(N2CCNCC2)c1 | inactive
C[N+](C)(C)CC#CCN1CCCC1=O | inactive
CC1C=CC=CCCC=CC=CC=CC=CC(OC2OC(C)C(O)C(N)C2O)CC2OC(O)(CC(O)C(O)CCC(O)CC(O)CC(O)CC(=O)OC(C)C(C)C1O)CC(O)C2C(=O)O (centres undefined) | inactive
S=C1NCCN1 | inactive
Oc1cc(Cl)ccc1Oc1ccc(Cl)cc1Cl | active
Cc1nccc2c1[nH]c1ccccc12 | inactive
CN1C(=O)/C(=C/c2cn(CC(=O)N3CCOCC3)c3ccccc23)C(=O)NC1=S | inactive
CC(C)C12OC1C1OC13C1(C)CCC4=C(COC4=O)C1CC1OC13C2O (centres undefined) | inactive
O/N=C1\CN2CCC1CC2 | inactive
C[N+]1(C)CCCC(OC(=O)C(O)(c2ccccc2)c2ccccc2)C1.[Br-] (centres undefined) | inactive
NC(=O)CN1CC[C@@H](NC(=O)[C@@H]2CCCN2)C1=O | inactive
C[C@@H]1CN([C@@H](C)CO)C(=O)CCCn2nncc2CO[C@@H]1CN(C)C(=O)Oc1ccc2ccccc2c1 | inactive
O=C(O)CN1C[C@@H]2C(NC(=O)c3ccno3)[C@H]2C1 (some centres undefined) | inactive
CO[C@H]1[C@@H](O)C[C@@H](O[C@H]2[C@@H](O)C[C@@H](O[C@H]3[C@@H](O)C[C@@H](O[C@H]4CC[C@@]5(C)[C@@H](CC[C@H]6[C@@H]5C[C@@H](O)[C@@]5(C)[C@H](C7=CC(=O)OC7)CC[C@@]65O)C4)O[C@@H]3C)O[C@@H]2C)O[C@@H]1C | inactive
O=c1[n-]c(=O)n(Cl)c(=O)n1Cl.[Na+] | inactive
Cc1[nH]c2ccccc2c1CN(C)C | inactive
